This note sets out measurements from ChEMBL document CHEMBL4888484, “Replenishing the malaria drug discovery pipeline: Screening and hit evaluation of the MMV Hit Generation Library 1 (HGL1) against asexual blood stage Plasmodium falciparum ,using a nano luciferase reporter read-out” (2022).

SMILES strings stand for the structures. The campaign covered roughly 150,000 compounds. About 540 (0.36%) showed an effect of 50% or more. Some of the results follow.

The assay deals with Plasmodium falciparum. Put plainly: Primary screen in NF54 nanoGlo assay, in single point, at 2uM, 72h; a lower Z score goes with more inhibition. The settings on record: timepoint 72 hour. Format: functional, Erythrocyte.
Consider `O=C(NCC(=O)N1CCc2ccccc2C1)C1CCCCC1`, for which the “% Inhibition” value is -1% and the Z score is 0.16.
Taken in the same sequence, the figures for `CCOc1ccccc1[C@H]1CC(=O)N(Cc2ccc(F)cc2)c2c1c(C)nn2-c1nc(C)cc(C)n1` were -9% and 1.25.
Taken in the same sequence, the figures for `COC(=O)C1CCC(C(=O)N2CCOC3(CCCCCC3)C2)CC1` (stereo not drawn) were -13% and 1.3.
For the compound `CCc1cccc(NC(=O)c2cn(-c3ccc(-c4noc(C5CC5)n4)cc3)nc2C)c1`, the “% Inhibition” value was -15% and the Z score worked out at 2.88.
With `Brc1cccc2c(N3CCOCC3)nccc12`, the “% Inhibition” value was -10% and the Z score was determined as 1.17.
`CCN(CC(=O)Nc1nc(-c2ccccc2)cn1-c1ccc(C(C)C)cc1)C(=O)C1CCCC1`: the “% Inhibition” value came out at 1% and the Z score was -0.12.
The like results for `Cn1cc(-c2nccnc2CNC(=O)c2cccs2)cn1` were, in that order, -11% and 1.2.
The like results for `CC(=O)c1cn(C[C@H]2CCCCO2)c(=O)n(C)c1=O` were, in that order, -14% and 2.52.
`Cc1nnc2c(N3CCN(C(=O)c4ccc(C(F)(F)F)nc4)CC3)nccn12`: the “% Inhibition” value is recorded as -16% and the Z score is given as 2.7.
The like results for `CC(C)(C)CC(=O)N1CC[C@H](Oc2ccncn2)C1` were, in that order, -1% and 0.08.
The like results for `Nc1ncncc1C(=O)N(CC1CC1)C1CCCCC1` were, in that order, -10% and 1.49.
For `Cc1nc(CN2CCC3(CC2)CCN(C(=O)C2CCCC2)C[C@@H]3CO)c[nH]1`, the “% Inhibition” value is -2% and the Z score is listed as 0.49.
`Cc1ncccc1Cc1noc([C@H]2CCCc3[nH]nnc32)n1`: the “% Inhibition” value is on record as 2% and the Z score is given as -0.37.
Taken in the same sequence, the figures for `COC(=O)c1[nH]c(C)c(CN(C(=O)C2CCCCC2)C2CCCC2)c1C` were -14% and 1.65.
Taken in the same sequence, the figures for `CCOC(=O)C(C)(C)c1csc(C2CN3CCCC3CO2)n1` (stereo not drawn) were 2% and -0.23.
Take `CCCN(CCC)Cc1ccc(CNc2nc(-c3ccc(OC)cc3)no2)o1`: the “% Inhibition” value was -6% and the Z score is listed as 0.9.
For `CC(C)(C)c1nc(Cn2cccc(C(F)(F)F)c2=O)no1`, the “% Inhibition” value is -11% and the Z score stood at 1.
Taken in the same sequence, the figures for `CNC(=O)Cn1c(-n2nc(C)cc2C)nc2c(c1=O)CCCC2` were -9% and 1.07.
In the case of `C[C@H](NCc1c[nH]c2nccnc12)c1ccc(Br)cc1F`, the “% Inhibition” value is on record as -3% and the Z score turned out to be 0.45.
Regarding `COCc1ccc(C2CCCN2C2CCc3ccccc3NC2=O)o1` (stereo not drawn), the “% Inhibition” value is listed as -6% and the Z score is 0.95.
Taken in the same sequence, the figures for `CCc1cc(NC(=O)Cc2ccc(OC)cc2)nn1-c1ccc(OC)cc1` were -2% and 0.3.
Take `COc1cc(OC)cc(C(=O)N2CCC[C@@]3(CCN(Cc4cccnc4)C3)C2)c1`: the “% Inhibition” value is on record as -9% and the Z score is given as 1.86.
Turning to `O=C1C[C@H](NC(=O)CN2CCCC2=O)c2ccccc2N1`, the “% Inhibition” value is given as -17% and the Z score amounted to 2.24.
As to `COCC(C)(C)NC(=O)c1cc(Br)c(C)nc1O`, the “% Inhibition” value was -6% and the Z score was 0.85.
The like results for `Cc1ccc(N(CC(=O)NC2CCN(C)CC2)S(=O)(=O)c2ccccc2)cc1` were, in that order, 0% and 0.02.
Take `CN(C1CCC(=O)N(Cc2ccccc2Cl)CC1)C1CCOC1` (stereo not drawn): the “% Inhibition” value is reported as -6% and the Z score came out at 0.77.
As to `OC1=Nc2nc(N3CCOCC3)sc2[C@@H](c2ccccc2)C1`, the “% Inhibition” value was 27% and the Z score is -3.03.
For the compound `O=C(CCOc1ccccc1)Nc1ccnn1C1CCCC1`, the “% Inhibition” value is -5% and the Z score turned out to be 0.91.
`O=C(c1nc2cnccc2s1)N1CCN(c2cnccn2)CC1`: the “% Inhibition” value stood at 5% and the Z score is given as -0.66.
The like results for `O=S(=O)(C[C@H]1CCCC1(F)F)NCc1cccs1` were, in that order, -11% and 1.62.
Taken in the same sequence, the figures for `Cc1ccc(C(=O)N[C@H]2CCCCNC2=O)o1` were 14% and -1.85.
Taken in the same sequence, the figures for `COC(=O)[C@H](CC(C)C)NC(=O)N1CCN(C(=O)N[C@@H](CC(C)C)C(=O)OC)CC1` were -2% and 0.28.
In the case of `O=C1C2CCCCC2C(=O)N1c1nccs1` (stereo not drawn), the “% Inhibition” value was -16% and the Z score is on record as 2.
On to `COc1ccc(C)cc1NC(=O)CNC(=O)COc1ccc(-c2ccc(Br)cc2)cc1`, for which the “% Inhibition” value is -9% and the Z score is reported as 0.9.
Taken in the same sequence, the figures for `COCCNCCOc1ccc(C)cc1-c1cccc2c1OCC2` were 8% and -0.98.
As to `C=CCC1(CC=C)CCCCN1C(=O)COCC(F)(F)C(F)F`, the “% Inhibition” value was found to be 5% and the Z score is given as -0.83.
Taken in the same sequence, the figures for `CC(C)(C)[C@H](NCc1noc(C2CC2)n1)c1cccs1` were -2% and 0.29.
For `CCn1ccnc1[C@H]1OCC[C@@H]1NS(=O)(=O)c1ccc(N(C)C)nc1`, the “% Inhibition” value was -5% and the Z score is recorded as 0.91.
`CCCC[C@H]1CN(c2ccc(Cl)cc2)C(=O)CN1C(=O)c1cc(C)no1`: the “% Inhibition” value is -7% and the Z score was found to be 0.89.
Taken in the same sequence, the figures for `Cc1nnsc1CN(C)C[C@H](C)N1CCCC1` were -16% and 1.54.
As for `CC1CCC(C)N1c1cccc2c1NCCC2` (stereo not drawn), the “% Inhibition” value was -6% and the Z score came to 0.86.
Taken in the same sequence, the figures for `Cc1cc(Cl)ccc1OCC(=O)N1CC[C@@H]2OCc3cnnn3[C@@H]2C1` were -15% and 2.84.
The like results for `COCC(=O)N[C@@H]1CN(C(=O)c2nc(C(C)C)oc2C)C[C@H]1c1ccnn1C` were, in that order, -4% and 0.7.
The like results for `O[C@H]1CCCN(Cc2cc(Cl)ccc2OCc2cccnc2)C1` were, in that order, -2% and 0.29.
For the compound `C=CCN1CCN(C(=O)C(CC)Oc2ccc3c(c2)C(c2ccc(F)cc2)N(C(=O)C2CCCC2)CC3)CC1` (stereo not drawn), the “% Inhibition” value was 3% and the Z score was -0.61.
The like results for `COC(=O)C1C(c2ccccc2)NC(c2ccccc2)C(C(=O)OC)S1(=O)=O` (stereo not drawn) were, in that order, 2% and -0.19.
As for `CN1CCC(NCC[C@@H](Cc2ccccc2Cl)c2ccc(Cl)cc2)CC1`, the “% Inhibition” value amounted to 72% and the Z score is reported as -14.93.
Taken in the same sequence, the figures for `O=S(=O)(Nc1noc(C2CC2)n1)c1ccc(CC(F)(F)F)cc1` were -12% and 1.22.
The like results for `CC(N[C@@H]1Cc2ccccc2[C@H]1N)c1ccccn1` (stereo partly drawn) were, in that order, 5% and -1.05.
The like results for `CC(=Cc1nnc(-c2ccc(-n3cnnn3)cc2)o1)C(C)(C)C` were, in that order, 2% and -0.3.
Take `CN(C)C(=O)[C@@H]1CN(C(=O)NCc2c[nH]nc2-c2ccc(F)cc2)CCO1`: the “% Inhibition” value is -5% and the Z score is given as 0.67.
Taken in the same sequence, the figures for `COc1ccc(-n2ncc3c(NCCNC(=O)c4ccccc4Cl)nc(C)nc32)cc1` were 48% and -4.25.
The like results for `Cc1cn2c(=O)c(C(=O)N3CCN(CC#N)CC3)cnc2s1` were, in that order, 15% and -1.87.
Turning to `COC[C@H]1CCCN1C[C@@H]1OC[C@H](NC(=O)c2cccc(F)c2)[C@H]1O`, the “% Inhibition” value worked out at 35% and the Z score was -3.96.

The term % Inhibition denotes the drop in the measured response relative to a control, in per cent.
